Assay results: the RNAGym collection of RNA variant scans (doi:10.1073/pnas.2313332121)
Variants at the floor of the assay are shown more often than the library holds them.

B1: TPR 5TU (parent)
chain: GGAUCUUCUCGAUCUAACAAAAAAGACAAAUCUGCCACAAAGCUUGAGAGCAUCUUCGGAUGCAGAGGCGGCAGCCUUCGGUGGCGCGAUAGCGCCAACGUUCUCAACUAUGACACGCAAAACGCGUGCUCCGUUGAAUGGAGUUUAUCAUG

Variants of: B1
Test: polymerase ribozyme fitness, log enrichment relative to wild type (log ratio); higher = more active; in vitro selection for triplet polymerase activity
In short: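 Libraries of mutants in each subunit of a heterodimeric triplet polymerase ribozyme were generated by PCR and transcribed. In triplicate, each went through one in vitro selection round: annealing with biotinylated primer, partner subunit and triplets; frozen incubation at −7 °C; gel excision of extended constructs; streptavidin-bead capture; RT-PCR. Fitness, taken from Illumina sequencing of input and output libraries, is the logarithm of a genotype's enrichment over wild-type enrichment, averaged across replicates with inverse-variance weights. The logarithm is base 2, and genotypes needed ≥10 input reads and ≥1 read per output to be kept.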

Variant	polymerase ribozyme fitness (log ratio)
C14G U15A C54A A110C	≤ -4.2
C14G U56A C76G G83A G86U G136A	≤ -4.2
C14G A26U G94C	≤ -4.2
C14U A91U G92C C114A G141A	≤ -4.2
C14U A29C C35U C51U U53G A122G	≤ -4.2
C14U A47G U90G C95G	≤ -4.2
C14G C54U C85G A107G	≤ -4.2
C14G C32G A41G C79U G84A C149U	≤ -4.2
C14U A37C C69A G88A U90A	≤ -4.2
C14G A16U C36U A73G G84U U101A C125U U135C A138U	≤ -4.2
C14G C129A	≤ -4.2
C14G C18U A24G U56A C85U A113C G124A C129U	≤ -4.2
C14G C35U C95U U101A	-3.82
C14G A29C U53A C95U C114U G140A	-3.68
C14G G50C A91U A119G C132U A150G	≤ -4.2
C14G A24G C51U C57A G136U A142C	≤ -4.2
C14G U31A C79U C85G U102G	≤ -4.2
C14G A37C	-3.05
C14G A24C A60G G62A G65C C87U U145G	≤ -4.2
C14A U77A G83U C85A G94C G124A A147U	≤ -4.2
C14A U101G	-1.35

Variant	polymerase ribozyme fitness (log ratio)
C14G A28U U55G A89U C96A G126A G128C G140C	≤ -4.2
C14U C27G G94C G133U A150G	≤ -4.2
C14U A22C G59C C75U A91U A121U U135C	≤ -4.2
C14G G50C C79A C114A G136A A150G	≤ -4.2
C14G A23G A73G G84U G126C U135A	≤ -4.2
C14G A19G G25A A30G A40U U56A C95A A142U	≤ -4.2
C14G A40C U55A G81C G126A U139G G140A	≤ -4.2
C14U C35A A40G G84A	≤ -4.2
C14G U148G	≤ -4.2
C14G C54U C69U U77C G94A A120G C131U	≤ -4.2
C14G A22G C54U G70U C95U C96A C114U A137C	≤ -4.2
C14A G58C G70U C87A A97C G112U C116A U151G	≤ -4.2
C14U C43U G84U	≤ -4.2
C14U C27G A29U C54U C75U C95U A107G	≤ -4.2
C14U C32G C54G A113C C123U G128U U135A U144A	≤ -4.2
C14U C18U A49G G59C G80C C85U	≤ -4.2
C14G G25U C36U G84U A89G A121G	≤ -4.2
C14G A29G C57A A66G C85A G100U A115G C149G	≤ -4.2
C14G A23C A40C G59A C85G G141C U144A	≤ -4.2
C14G A22C A39C A52G C75G U82G G140U	≤ -4.2
C14U A23U U44A G68U A73G U127C A142C	≤ -4.2

Variant	polymerase ribozyme fitness (log ratio)
C14G C27U C87G G88U U90G	≤ -4.2
C14G C18U G92C	-2.89
C14G A97U C105U C114U C125U A142C	≤ -4.2
C14G A20U A26G A29U C57A C69U C76A G112A G141C	≤ -4.2
C14G A47G C118G A119G A121U G141U	≤ -4.2
C14G A26U G58C A89U G117U A120C C125A	≤ -4.2
C14G C32G C57U U130G	≤ -4.2
C14A C36U U45C C87U C105A G133U	≤ -4.2
C14A G84A C129G A138G	≤ -4.2
C14G C35A G83C U101C	≤ -4.2
C14A U111C	≤ -4.2
C14U A17G G70C G80A A137U	≤ -4.2
C14A C76A A89C U90G C95U A107U	≤ -4.2
C14U C43U A97U C131G	≤ -4.2
C14G A26C A37G C85U G124U C125U	≤ -4.2
C14G G83U	-2.05
C14A C43U U45A G68C C85G U102G G133U	≤ -4.2
C14U A22U A24G A97U U130G G136A	≤ -4.2
C14G G83U U109C A113U G124A	≤ -4.2
C14G A91U C93G C125A	≤ -4.2
C14G A106C C118A C123U	-4.16

Variant	polymerase ribozyme fitness (log ratio)
C14U A21G G50U G59A A73U C93G G100U A107G U109C A142C A150U	≤ -4.2
C14U A17C C35G G141C U151A	≤ -4.2
C14A U55G C93U A97G A115C C118G	≤ -4.2
C14G A20G U31G C35U C54G	≤ -4.2
C14U A16G A24U A28C G59U C85U C93G C116A	≤ -4.2
C14A U15G A49G G83A G94U G100A C105G	≤ -4.2
C14U C63U C85A A115G	-3.56
C14A G58A G68A U78A G94A	≤ -4.2
C14G C27A U44A G48C C87U U145C	≤ -4.2
C14U A52G U55A G88C A137G G143A	≤ -4.2
C14G C35A G92U U135A U151C	≤ -4.2
C14G U31C C38U A47C C85A C96U U148G G152C	≤ -4.2
C14U A23U C35U A73G C76G A91C C103G A121U	≤ -4.2
C14G A47C U53G C76G C99G	≤ -4.2
C14U A40C G65A G92C C105U	≤ -4.2
C14G A21U G59C G94A U101G A113C	≤ -4.2
C14U A39G U53A C57U C108A	≤ -4.2
C14A G80A C85U C103G G117U G124U A142G	≤ -4.2
C14U C38U G46C C54U U102G U109G U130A	≤ -4.2
C14U A73G C85U G86C G94U	≤ -4.2
C14A U56A U90A C96G G126A	≤ -4.2
